In publication PMC12136788:
The list shows a part of the results.

T1: UNK ZnF1-3 (human, UniProt Q9C0B0 31-174)
T1 sequence: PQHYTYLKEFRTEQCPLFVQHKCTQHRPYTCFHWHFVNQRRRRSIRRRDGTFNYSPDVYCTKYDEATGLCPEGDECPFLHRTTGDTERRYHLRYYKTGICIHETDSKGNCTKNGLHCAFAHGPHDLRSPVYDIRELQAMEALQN

B1: 88408222_88408429_915_CDS_ENSMUSG00000005371_ENSMUST00000130379|mouse|control|control (ssRNA)
RNA: GGGAGUUCUACAGUCCGACGAUCGGACACGCCCCCUGGCCACUGACACACACUGCAGAACCAACUGUGCAUGUGCUGCGGAUUAUACAGUGGUCAAUAAUAGGGCUGCAGUUGACUGUGAUCUCUAAGCAGUGGUGUGCGUUGCAACAGAGGAUUGAGCAUCA
B2: chr9:100896081:100896082:-_ENSMUSG00000032527_ENSMUST00000035116|mus_mus|motif|central (ssRNA)
RNA: GGGAGUUCUACAGUCCGACGAUCGAAAUUGAAGAAUUCACGCAGGUUACACAGAGCAUCAACAUCAUUGUCGAAAGCUCGGUGGGCCACACCUGACACAGUGGUGUGGGUCUUGGCACCACCCAGCUGCUCUUGAGUGACAUCCAACAGAGGAUUGAGCAUCA
B3: chr3:119242560:119242561:+_ENSG00000113845_ENST00000264244|hu_hu|FALSE|FALSE (ssRNA)
RNA: GGGAGUUCUACAGUCCGACGAUCUCAGCUCUCCAGUGAGUUUCAAGUUCAGAGCACUUUCAGUCCUUGUCUUGUUUAUCUAUUACUGAAGGGUUUCUAGGAAGGUUUAGCAGUGCUUCAAUUUUCUUAGCAUCAUUCUCAGGUCAACAGAGGAUUGAGCAUCA
B4: chr3:105481821:105481822:-_ENSMUSG00000027905_ENSMUST00000090680|mus_hu|FALSE|FALSE (ssRNA)
RNA: GGGAGUUCUACAGUCCGACGAUCCCCCUCUUUAAGUCUUGUCUUCAUCUGGAUUCCAGGUGAUUCUUGAUAUUUCUCUGGAUUGGGGGUGUCACUUCCAUUUGGUGGUUGUUCCAAAGAAAUACGAUCAUCCACAGGCGUAGACAACAGAGGAUUGAGCAUCA
B5: chr7:117451621:117451622:-_ENSMUSG00000038371_ENSMUST00000164759|mus_mus|FALSE|FALSE (ssRNA)
RNA: GGGAGUUCUACAGUCCGACGAUCGAACAUACGGCAGGCGGUGCCGUCAUGGAAGUUAAAAGACUCCAGUUACAAAAGCAGUAGUGGGCACAGCUUCAAAGAGCCGAGAGGACAGUGGGCUCCAGAGUCUACAAAGUACAAAAACAACAGAGGAUUGAGCAUCA
B6: 44200788_44200988_1324_CDS_ENSG00000138095_ENST00000260665|human|control|control (ssRNA)
RNA: GGGAGUUCUACAGUCCGACGAUCGAAAUAGUGAGGUCUGAUAGGAAAACCUUCCUCCUUCACAGCCUUCAUUAAGGCUUUUGCCAAAUCAGUUUUAUUGGCGAGUAAAGCACAAUGGAGGGUGAACUGCAGAGGAAAGGAGUGCAACAGAGGAUUGAGCAUCA
B7: chr9:91949571:91949572:+_ENSG00000187742_ENST00000375807|hu_mus|FALSE|FALSE (ssRNA)
RNA: GGGAGUUCUACAGUCCGACGAUCAUAAACACGCUUUUCUCUGUUGUAGGAAGGAUUUGAAGAUAAAGCCUCAGAUGUCACACUAACAUUUUUAGCAUCAGCUGAUGAAGUAGUCUUCUUUAGGUUUAUCAUGGAAGUCACAUUCAACAGAGGAUUGAGCAUCA
B8: chr16:94664741:94664742:+_ENSMUSG00000040785_ENSMUST00000117648|mus_hu|mus_mus_mus_hu_False|48_108 (ssRNA)
RNA: GGGAGUUCUACAGUCCGACGAUCUGGCAUGGAUCUUGGUAGCUGAUAUUCAGGAGAAAGGCUGGCCAAGGGUGUAUAUAUGCUGGUGAACUGCGACAAACCUGGUAACACGUUUAUGUAUGCUGGCGGUGUCUGGGUGAUAUCCAACAGAGGAUUGAGCAUCA
B9: chr11:69466387:69466388:+_ENSG00000110092_ENST00000227507|hu_mus|FALSE|FALSE (ssRNA)
RNA: GGGAGUUCUACAGUCCGACGAUCUUAAAAACAUAUAAAAGAAUCAAAACUCCUUCUCAAGACUUCCCCUGUGUUAAUCCUACUCUUAGAACAGACAAGCACAUUAAUAGAAAACUAGUUGAUUACUGGGGUACAGAAUUCUAUCAACAGAGGAUUGAGCAUCA
B10: chr8:59359966:59359967:+_ENSG00000215114_ENST00000399598|hu_hu|motif|central (ssRNA)
RNA: GGGAGUUCUACAGUCCGACGAUCCGCAAAUUCAGGACGAGACUGUACAAUAAAGUUCCGGACAUCCAGGAUCCUGUGUGUACGGUUGAAUCUUUGUAUCAAACGACUCCCAUCUGCUAACCUGAUUUGAAUUUUUGUUGUUGGCAACAGAGGAUUGAGCAUCA
B11: chr2:155483576:155483577:-_ENSMUSG00000038324_ENSMUST00000041059|mus_hu|FALSE|FALSE (ssRNA)
RNA: GGGAGUUCUACAGUCCGACGAUCUUGAGCAUUUUUGGCAAGAAGCGUGUGCUUGUCAUCAUUCCCUGUAUCCAUCUCUGAAAUGGUGACAGCCAGAAUCCGGCAGAAAUUAGCGAGCUGCUGCUGAUCGAAAUUGGAUACUAACAACAGAGGAUUGAGCAUCA
B12: chr17:57759754:57759755:+_ENSG00000141367_ENST00000269122|hu_mus|motif|central (ssRNA)
RNA: GGGAGUUCUACAGUCCGACGAUCAUCAUAACAACGGUCACCAACUUGCUGAAUAUGAGCAUUAUUUGGCCCAUUGAUGAACUCUUCGGAUUCUGCAAGGCGGUUUGUUUUAGCCAGUGCAAAUAUCAAUUCUGUCUCCACAUACAACAGAGGAUUGAGCAUCA
B13: chr7:140710375:140710376:-_ENSG00000090263_ENST00000324787|hu_hu|motif|central (ssRNA)
RNA: GGGAGUUCUACAGUCCGACGAUCGUGGUGAUUUGGAUACCAAUCAUAAGUCUCCUUCUUCUUGGCCAAGGGCAGUUCACGGAACAGUUUCACCACUUUCAUAGACUUGGAAUUAGUAGGCCUGGUGACUUCACCAAAUAGCCGCAACAGAGGAUUGAGCAUCA
B14: chr2:115689366:115689367:-_ENSMUSG00000027210_ENSMUST00000074285|mus_hu|motif|central (ssRNA)
RNA: GGGAGUUCUACAGUCCGACGAUCCUUUGAAGAAGAGUCCCCCAAAAAUAAUAAUAAGAAUUGGCUUAUGAAGCACGAACGGUAAAGAUCUGUUUGAAACUAAAGGACACAUUUAUGGAGGAACAAAGGCCGGGCAUGAAAACACAACAGAGGAUUGAGCAUCA
B15: 22114058_22114178_5692_3pUTR_ENSG00000100030_ENST00000215832|human|control|control (ssRNA)
RNA: GGGAGUUCUACAGUCCGACGAUCUACAGCUGACAGUCUGAAGCAGAGGAAGAAAGCAGAGACGCAGAAUGACUGGCCCACAGCCAGCCGCAGUUAUAAGCAGGGGGUAGUUCUGAACCCAGCUGGAUGGGUCCAAGGCCUGUGCAACAGAGGAUUGAGCAUCA
B16: chr4:21803547:21803548:+_ENSMUSG00000028248_ENSMUST00000098238|mus_hu|motif|central (ssRNA)
RNA: GGGAGUUCUACAGUCCGACGAUCCACUUCAAGAUUGAUCUAAAAAACAUUUUAAGAUAUGAAAAUGUUAUACAACUUAUCGGUUACAAAUUAAUCAGAUAAUUCUGCAAUUAGGUACACUGUGUUAGCUCGCCUACAUAAAAACAACAGAGGAUUGAGCAUCA
B17: chr5:44151052:44151053:-_ENSMUSG00000039753_ENSMUST00000047857|mus_hu|motif|central (ssRNA)
RNA: GGGAGUUCUACAGUCCGACGAUCGUCAGUCUGGGUAAGAUCCAGAUGCUCCAGGUUAGGACAAAGCUCUAAAAUCUGCCGGACCAUUUUGCUGGAAACUGCAGAGCUGUAUGCUAAUACUAAGGUUUUUACAGAAGUACCAACCAACAGAGGAUUGAGCAUCA
B18: chr3:118931466:118931467:-_ENSG00000121578_ENST00000480814|hu_mus|FALSE|FALSE (ssRNA)
RNA: GGGAGUUCUACAGUCCGACGAUCCACUGUGAUGUUGGCAUAUAAAGGGUUGUGCUCCACAGAGAGUAAUCUGUAAGAACAACUCGAUAAGCCAUCUGUUUUCCAGACCCGGGACAUCUGUUGCAACAGCUUCAUUCGGCCCAUCAACAGAGGAUUGAGCAUCA
B19: chr4:59614313:59614314:+_ENSMUSG00000028383_ENSMUST00000030078|mus_mus|FALSE|FALSE (ssRNA)
RNA: GGGAGUUCUACAGUCCGACGAUCGUUGCCAGUAAAACUUUUUGGCCUUUUGAAAAUGGAAUAUGCAGCGUCCGCAAUGAUGUCAACUUUUCUACAUUGGUUUUCAACACCAGAUCCUCCCAGCAUAUCCAUAGCAGCAGUGUGCAACAGAGGAUUGAGCAUCA
B20: chr16:46990815:46990816:-_ENSG00000069345_ENST00000563158|hu_mus|FALSE|FALSE (ssRNA)
RNA: GGGAGUUCUACAGUCCGACGAUCUCGAAAUGAAGAUGUAAAGCUCUGUGGUUAGUUUAAAUUAUACACUCUGUGGAUACGAUACCAAUUUUAGAAGUUACACAUAGAUCAACAGAUGUCCAUCAGUCCAUCUGGACUUAUCAGCAACAGAGGAUUGAGCAUCA
B21: 30560643_30565594_417_CDS_ENSG00000104687_ENST00000414019|human|control|control (ssRNA)
RNA: GGGAGUUCUACAGUCCGACGAUCACCACCUGUGGCGAUCAGGAUGUGUGGGGCGGUGUACUUUUUCCCACUGACCUCUAUUGUGGGCUUGGGAUCACUCGUGAAGGCUGCAUGGCCACGGAUGAUUUCUAUAUGGGACUUGGUCAACAGAGGAUUGAGCAUCA
B22: chr9:95013113:95013114:-_ENSG00000196305_ENST00000443024|hu_hu|FALSE|FALSE (ssRNA)
RNA: GGGAGUUCUACAGUCCGACGAUCUUCAGUGAGAAAAGGUGUGUAGGGAGCCAUAAGUCUGCAAAGAGAAAGCAGAACACUAAACAAGGUUUCUAGGGCCAUGACACAAUCCUCCAUCCCAUUUUCACCCUUUAAUCUUCUGCGCAACAGAGGAUUGAGCAUCA

Each binder was assayed against T1, UNK ZnF1-3 (assay: nsRBNS (natural sequence RNA bind-n-seq); RBNS binding buffer (assumed for nsRBNS): 25 mM Tris pH 7.5, 150 mM KCl, 3 mM MgCl2, 0.01% Triton X-100, 500 ug/ml BSA, 20 U/ml SUPERase-In, 4 C; UNK is unkempt and MSI1 is Musashi-1; names of the RNAs are library labels; protein concentration not given here; high values mean tight binding).

Binder | binding signal
B1 | 0.402 enrichment R
B2 | 0.719 enrichment R
B3 | 0.625 enrichment R
B4 | 0.529 enrichment R
B5 | 1.44 enrichment R
B6 | 0.712 enrichment R
B7 | 0.972 enrichment R
B8 | 1.08 enrichment R
B9 | 1.99 enrichment R
B10 | 0.961 enrichment R
B11 | 1.01 enrichment R
B12 | 0.685 enrichment R
B13 | 0.948 enrichment R
B14 | 2.61 enrichment R
B15 | 1.59 enrichment R
B16 | 0.848 enrichment R
B17 | 1.28 enrichment R
B18 | 0.718 enrichment R
B19 | 1.03 enrichment R
B20 | 0.874 enrichment R
B21 | 0.73 enrichment R
B22 | 1.08 enrichment R
